Test results published in PubChem BioAssay AID1458 (National Center for Advancing Translational Sciences (NCATS), 2008).
The whole screen tested about 210,000 compounds, of which about 5,900 (2.8%) were called active. The shares of active, inactive and inconclusive entries below differ from those in the screen. The call rests on the fitted dose curve; in most records, active means well fitted activation curve with a large enough effect; inconclusive means small, poorly fitted or top-dose-only effect; inactive means no such curve, though single readings can be large or run the other way. Potencies of inconclusive entries are doubtful fits and often do not repeat.

experiment: qHTS Assay for Enhancers of SMN2 Splice Variant Expression; details: HEK293 SMN2-luciferase splicing reporter, luminescence, 30-36 h; activity change, positive = activation: at 46.1 µM (top of the series); further: nearly all actives have a fitted effect of over 55% in size; on activity change, positive = activation: % of control where 0% means no effect
Method in brief: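 HEK293 cells carry an SMN2 minigene-luciferase reporter in which exon 7 inclusion puts luciferase in frame. Cells were seeded at 2000 cells/well, attached for 10-12 hours, then exposed to compounds for 30-36 hours at 37C before ONE-Glo luminescence.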
Potency means the concentration at half of the fitted maximal effect; tags describe the fitted curve by direction and shape.

SMILES | activity change, positive = activation | Potency
O=C(CCl)c1ccccc1 | inactive: 0.443% | 
CC(Cc1ccccc1)[n+]1cc(/N=C(\N)[O-])on1 (stereo unspecified) |  | inconclusive: 35.5 µM [activator, single point]
CNC(=O)Oc1cccc(-c2cn3cc(Cl)ccc3n2)c1 |  | inconclusive: 2.82 µM [activator, single point]
COC(=O)C12C/C=C\Cc3ccccc3[C@@H]1CNC2=O (stereo partly specified) | inactive: 5.45% | 
CC(C)CCn1c(N)c(C(=O)NCc2cccs2)c2nc3ccccc3nc21 | inactive: -11.5% | 
O=[N+]([O-])c1cc(F)c(N2CCCCCC2)cc1N1CCNCC1 |  | inconclusive: 5.62 µM [activator, single point]
COc1ccc(/C=C/C(=O)Nc2ccc(C)cc2)cc1 |  | inconclusive: 20 µM [activator, single point]
CN1C(=O)N(C)C(=O)C2(Sc3ccccc3C2=O)C1=O |  | inconclusive: 8.91 µM [activator, partial curve, poor fit]
CC1(C)CN=C(Nc2nc3ccccc3s2)S1 |  | active: 12.6 µM
CN1CCN(c2ccc(/C=C3\C(=O)NC(=S)N(c4cccc(Br)c4)C3=O)o2)CC1 |  | inconclusive: 7.08 µM [activator, partial curve, poor fit]
OCCNc1c2c(nc3ccccc13)CCCC2 | inactive: -16.8% | 
Oc1ccc(Cl)cc1CN1CCN(Cc2ccccc2)CC1 | inactive: -9.95% | 
COC(=O)C12CC3=C[C@H](CC3=O)Cc3ccccc3[C@@H]1CNC2=O (stereo partly specified) |  | inactive
COCCOC(=O)C1=C(N)Oc2c(c(=O)oc3ccccc23)[C@@]12C(=O)Nc1ccccc12 |  | inconclusive: 5.01 µM [activator, partial curve, poor fit]
COC(=O)c1ccc2ccn(CC(=O)NC(C)C)c2c1 |  | inconclusive: 0.0035 µM [activator, full curve, poor fit]
Cc1ccc2nc(-c3ccncc3)cc(C(=O)N3CCC4(CC3)OCCO4)c2c1 |  | inconclusive: 35.5 µM [activator, single point]
c1cc(Cc2cnc[nH]2)ccn1 |  | inconclusive: 6.31 µM [activator, single point]
CC(=O)C(Sc1ncnc2c1nnn2-c1ccc(F)cc1)C(=O)N(C)C (stereo unspecified) |  | inconclusive: 3.16 µM [activator, partial curve, poor fit]
O=C1NC(=S)N(C2CC2)C(=O)/C1=C/c1ccc2c(c1)CCN2CCCCl | inactive: -21% | 
Cc1ccc(-n2nc(C)c3c2OC(N)=C(C#N)C3c2ccc(F)cc2)cc1 (stereo unspecified) |  | inconclusive: 0.316 µM [activator, full curve, poor fit]
CC(=O)Oc1ccc(/C=C/c2cc(OC(C)=O)cc(OC(C)=O)c2)cc1 |  | inconclusive: 31.6 µM [activator, single point]
COc1ccc(-c2cc(=Nc3ccccc3)c3cc(C)ccc3o2)cc1 |  | inconclusive: 14.1 µM [activator, partial curve]

SMILES | activity change, positive = activation | Potency
CCC(=NCc1ccco1)c1c(O)[nH]c(=O)[nH]c1=O |  | inconclusive: 20 µM [activator, partial curve, poor fit]
Cn1nc(OC(=O)Nc2ccc(Cl)cc2)cc1C(F)(F)F |  | inconclusive: 7.94 µM [activator, partial curve]
C[C@@H]1C2C[C@@]34COC(=O)C3=CC=C[C@H]4[C@@]13C[C@H](c1ccoc1)O[C@@H]3O2 | inactive: -22.7% | 
Cc1cccc(N2C(=O)NC(=O)/C(=C/c3ccc([N+](=O)[O-])o3)C2=O)c1 |  | inconclusive: 0.316 µM [activator, full curve, poor fit]
CCCCOc1ccc(CN2CCN(CCO)CC2)cc1 | inactive: -11.8% | 
N#CC1=C(N)Oc2n[nH]c(-c3cccs3)c2C1c1ccsc1 (stereo unspecified) |  | inconclusive: 10 µM [activator, partial curve, poor fit]
c1ccc2sc(NC3=NCCN3)nc2c1 |  | inconclusive: 22.4 µM [activator, single point]
COc1cc(C=C(C#N)C#N)cc(O)c1O |  | inconclusive: 12.6 µM [activator, single point]
COC(=O)C(O)(c1ccc(NC(=O)Oc2ccccc2)cc1)C(F)(F)F (stereo unspecified) | inactive: 18.4% | 
COc1ccc(C(=O)Nc2ccc(-c3nc4ccccc4s3)c(Cl)c2)cc1Cl |  | inconclusive: 35.5 µM [activator, single point]
c1cncc(C2CCCCN2)c1 (stereo unspecified) |  | inconclusive: 14.1 µM [activator, partial curve, poor fit]
OCC1OC(n2cnc3cc(Cl)c(Cl)cc32)C(O)C1O (stereo unspecified) |  | inconclusive: 10 µM [activator, partial curve]
O=C(NCc1ccc(C(=O)N2CCC3(CC2)OCCO3)cc1)c1cccc(Br)c1 |  | inconclusive: 5.62 µM [activator, single point]
O=C(Nc1nc2ccccc2n1CCN1CCCC1)c1ccc(Cl)cc1 |  | inconclusive: 20 µM [activator, partial curve, poor fit]
Cc1cc(/C=C2\C(=O)NC(=O)N(C)C2=O)c(C)n1-c1ccc2c(c1)OCO2 | inactive: -14.7% | 
CC(C)(C)OC(=O)c1c(N)n(Cc2ccco2)c2nc3ccccc3nc12 |  | inconclusive: 35.5 µM [activator, single point]
COc1ccc(C2=NOC(COC(=O)c3ccc4ccccc4n3)C2)cc1 (stereo unspecified) |  | inconclusive: 3.16 µM [activator, single point]
O=C(N/N=C/c1cccc([N+](=O)[O-])c1)c1cnccn1 |  | inconclusive: 15.8 µM [activator, single point]
Cc1cccc(NC(=O)CSc2ccc(-c3ccco3)nn2)c1 | inactive: -37.2% | 
Cn1c(=O)cc(OCC(=O)N2CCC3(CC2)OCCO3)c2ccccc21 |  | inconclusive: 11.2 µM [activator, partial curve]
Cc1csc(N2CCc3ccccc32)n1 |  | inconclusive: 17.8 µM [activator, partial curve, poor fit]
CCOC(=O)C(O)(c1ccc(NC(=O)c2ccco2)c(OC)c1)C(F)(F)F (stereo unspecified) |  | inconclusive: 10 µM [activator, partial curve, poor fit]

SMILES | activity change, positive = activation | Potency
O=C(O)[C@H]1C2c3ccccc3C(c3ccccc32)[C@@H]1C(=O)NCC1CC1 | inactive: -2.92% [at 9.22 µM] | 
COc1ccc(CCNc2oc(-c3ccc(OC)c(OC)c3)nc2P(=O)(OC)OC)cc1OC |  | inconclusive: 0.178 µM [activator, full curve, poor fit]
CC[C@]1(O)CC(O[C@@H]2CC(N(C)C)C(O)C(C)O2)c2c(cc3c(c2O)C(=O)c2c(O)cccc2C3=O)C1C(=O)OC (stereo partly specified) |  | active: 0.794 µM
COc1ccc(CCN(C)Cc2ccncc2)cc1OC |  | inconclusive: 0.005 µM [activator, full curve]
CC[C@]1(O)CC(O[C@@H]2CC(N(C)C)C(O)C(C)O2)c2c(cc3c(c2O)C(=O)c2c(O)ccc(O)c2C3=O)C1C(=O)OC (stereo partly specified) |  | inconclusive: 3.98 µM [activator, single point]
CCOC(=O)CSc1ncnc2c1cnn2-c1ccccc1 |  | inconclusive: 0.141 µM [activator, partial curve, poor fit]
Cc1cccc(-n2c(O)c(C=Nc3ccccc3N)c(=O)[nH]c2=O)c1 |  | inconclusive: 11.2 µM [activator, single point]
COCCN(Cc1ccccc1)P(=O)(O)c1ccccc1OCC(=O)O |  | inconclusive: 5.62 µM [activator, single point]
COc1ccc2[nH]cc(CCN=C(NC(=O)c3ccccc3OC)Nc3nc(C)cc(C)n3)c2c1 |  | inconclusive: 35.5 µM [activator, single point]
OC[C@H]1O[C@@H](n2cnc3cc(Cl)c(Cl)cc32)[C@H](O)[C@H]1O | inconclusive: 48% [activator] | 
Clc1cnc(Oc2ccc(Oc3ncc(Cl)cc3Cl)cc2)c(Cl)c1 |  | inconclusive: 3.98 µM [activator, single point]
CCCCSc1nc2c(cnn2-c2ccccc2)c(=O)n1N |  | active: 10 µM
CCOC(=O)C(=CNc1ccc(C(O)(C(=O)OCC)C(F)(F)F)cc1C)C(=O)OCC (stereo unspecified) | inactive: -27.8% | 
CN1C[C@H](C(=O)N[C@]2(C)O[C@@]3(O)C4CCCN4C(=O)[C@H](Cc4ccccc4)N3C2=O)C[C@@H]2c3cccc4[nH]cc(c34)C[C@H]21 (stereo partly specified) |  | inconclusive: 0.891 µM [activator, full curve, poor fit]
c1nc(N2CC2)c2cnn([C@@H]3CCCCO3)c2n1 | inactive: -11.3% [at 9.22 µM] | 
C/C=C1/C[N@@+]2(C)CC[C@]34C(=C(C=O)[C@H]1C[C@H]32)Nc1ccccc14 | inactive: 2.61% | 
O=C(C1CCN(CC2CCCCC2)CC1)N1CCCC1 |  | inconclusive: 39.8 µM [activator, partial curve, poor fit]
Cc1ccc(N2C(=O)NC(=O)/C(=C/c3cnn(-c4ccc(C)cc4)c3)C2=O)cc1 |  | inconclusive: 35.5 µM [activator, single point]
O=c1[nH]c(=O)n(CCc2ccc(F)cc2)c(O)c1C=NCc1ccc2c(c1)OCO2 |  | inconclusive: 0.631 µM [activator, full curve, poor fit]
Cc1cccc(-n2c(O)c(/C=N/N3CCOCC3)c(=O)[nH]c2=S)c1 |  | inconclusive: 0.501 µM [activator, full curve, poor fit]
COc1ccccc1N(CC(=O)NC1CCCC1)C(=O)c1cnn(C(C)C)c1 |  | inconclusive: 0.112 µM [activator, full curve, poor fit]
CCc1ccccc1N1C(=O)/C(=C/c2ccc(N3CCN(C)CC3)o2)C(=O)NC1=S |  | inconclusive: 6.31 µM [activator, full curve]
